Experimental findings from the supplement of paper PMC3334620 are described below.

In all, about 33,000 sequences were measured (“E-score (-0.5 to 0.5)”: median about -0.053, highest 2% from about 0.37 on). The list shows a part of the results.

Sequence of UniProt P0CE41 (P0CE41 whole entry, the tested form may be a part): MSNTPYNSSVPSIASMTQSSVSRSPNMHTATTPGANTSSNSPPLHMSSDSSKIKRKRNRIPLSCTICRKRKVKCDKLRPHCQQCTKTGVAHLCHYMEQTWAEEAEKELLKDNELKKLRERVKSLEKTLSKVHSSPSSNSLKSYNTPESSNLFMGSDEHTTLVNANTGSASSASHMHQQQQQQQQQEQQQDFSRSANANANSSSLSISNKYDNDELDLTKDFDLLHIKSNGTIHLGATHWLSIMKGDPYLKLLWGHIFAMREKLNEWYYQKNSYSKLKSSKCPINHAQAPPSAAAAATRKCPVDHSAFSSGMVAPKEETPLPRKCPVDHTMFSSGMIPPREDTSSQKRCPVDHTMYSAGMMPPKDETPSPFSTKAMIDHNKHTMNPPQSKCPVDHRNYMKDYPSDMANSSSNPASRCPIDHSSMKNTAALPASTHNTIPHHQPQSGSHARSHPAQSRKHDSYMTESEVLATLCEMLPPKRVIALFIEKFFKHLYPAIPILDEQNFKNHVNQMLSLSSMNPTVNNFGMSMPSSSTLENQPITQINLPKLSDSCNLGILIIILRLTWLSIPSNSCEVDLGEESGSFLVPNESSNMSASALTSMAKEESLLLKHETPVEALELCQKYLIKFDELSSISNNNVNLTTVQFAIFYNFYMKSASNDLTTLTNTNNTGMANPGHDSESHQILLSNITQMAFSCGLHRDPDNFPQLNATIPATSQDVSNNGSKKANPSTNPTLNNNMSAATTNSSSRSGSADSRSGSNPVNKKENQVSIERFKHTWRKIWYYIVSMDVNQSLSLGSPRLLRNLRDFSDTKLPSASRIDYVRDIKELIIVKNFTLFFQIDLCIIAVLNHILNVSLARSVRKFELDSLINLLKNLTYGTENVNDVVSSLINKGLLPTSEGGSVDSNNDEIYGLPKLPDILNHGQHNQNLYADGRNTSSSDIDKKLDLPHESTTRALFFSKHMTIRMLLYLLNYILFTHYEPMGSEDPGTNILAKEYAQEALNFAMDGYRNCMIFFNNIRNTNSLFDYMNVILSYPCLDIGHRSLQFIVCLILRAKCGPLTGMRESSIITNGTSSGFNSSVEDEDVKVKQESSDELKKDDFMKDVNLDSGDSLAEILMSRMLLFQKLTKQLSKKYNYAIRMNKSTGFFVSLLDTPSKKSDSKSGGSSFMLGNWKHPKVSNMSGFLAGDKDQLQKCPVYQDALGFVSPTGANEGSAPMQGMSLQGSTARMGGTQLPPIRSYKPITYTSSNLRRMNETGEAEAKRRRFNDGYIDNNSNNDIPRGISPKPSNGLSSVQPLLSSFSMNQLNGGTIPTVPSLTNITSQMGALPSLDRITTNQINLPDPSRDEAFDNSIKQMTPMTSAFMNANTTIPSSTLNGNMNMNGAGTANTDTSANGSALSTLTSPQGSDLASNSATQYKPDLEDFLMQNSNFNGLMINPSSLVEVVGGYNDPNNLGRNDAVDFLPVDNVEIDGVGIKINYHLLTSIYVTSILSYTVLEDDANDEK

The assay concerns the target Hap1 (UniProt P0CE41). Kind of assay: PBM E-score (8-mer binding enrichment) (E-score (-0.5 to 0.5)); higher = stronger / more preferred TF binding; most listed sequences are background and not binding sites. As to conditions: protein concentration: 200 nM; construct: GST-DNA-binding domain. The gist of the method:
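E-scores (a modified Wilcoxon-Mann-Whitney statistic) were assigned by the Universal PBM Analysis Suite to every ungapped eight-base word pooled with its reverse complement. The input came from universal all-10-mer Agilent arrays made double-stranded by primer extension and probed with GST-tagged yeast transcription factors at about 100-200 nM. Fluorescent anti-GST detected bound protein, and masliner normalised the scans.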
CCCGGGAG: the “PBM E-score” value was found to be 0.299. Next, CATAAGTC: 0.014; CTACATCC: 0.0993. As for CAGTACAC, the “PBM E-score” value is -0.168. As for AATAGTGC, the figure is 0.0794; as for GGACGTCC, 0.0941.

Take CCCCAACC: the “PBM E-score” value is -0.108.

For the sequence TCCCTGCA, the “PBM E-score” value was -0.109. Next, GACGTGCC: 0.0645; AGGGGGTC: -0.19.

Consider ATGGCCTA, for which the “PBM E-score” value was 0.0189.

Take ATTAACGG: the “PBM E-score” value was determined as 0.35.

Regarding GTTGAGAA, the “PBM E-score” value was -0.157. As for GTACTGCA, the figure is -0.0202; as for ACTGCTCT, -0.135.

Take GTGTCAGA: the “PBM E-score” value was -0.178. As for GACCAATC, the figure is -0.0486; as for ACTTCTCG, 0.165; as for AACTCGTC, -0.272. Take AAGTTGAG: the “PBM E-score” value was -0.075. As for GGATTCGA, the figure is -0.0199; as for AAGACTGT, -0.333; as for CAGGTCGA, -0.154. As for ACGAAACC, the figure is 0.121; as for GCACCGAA, 0.181; as for AATTCGAG, -0.267. Take CCATTTAA: the “PBM E-score” value was -0.249.

As for ATCCTTGG, the “PBM E-score” value is -0.0799.

As for AGAAAAAA, the “PBM E-score” value was -0.0848. Consider CACTCAGC, for which the “PBM E-score” value is -0.00402. In the case of CATTGGGG, the “PBM E-score” value was -0.191. As for CAGGGTTC, the figure is -0.116; as for ATCCATTC, 0.0139. Take AAAGCGAA: the “PBM E-score” value was 0.144. As for AGTCTAGG, the figure is -0.31; as for AGGGGCAA, -0.0261; as for AAGTGATG, -0.13. Turning to AGTGTTGA, the “PBM E-score” value was -0.0591. Regarding GTAAGACA, the “PBM E-score” value was -0.0427. TATTTAAA: the “PBM E-score” value is 0.124.

AATTGCAC: the “PBM E-score” value is -0.191. Take AGTTCCAA: the “PBM E-score” value is -0.0617.

As for GGGACCGA, the “PBM E-score” value worked out at 0.329. As to GGTATTAC, the “PBM E-score” value amounted to 0.296.

Take CGTACTGC: the “PBM E-score” value was -0.201. Next, AATACCCA: 0.0741.

With AAACAAGG, the “PBM E-score” value is -0.127. GTTTGAGA: the “PBM E-score” value was -0.304. As for TAAGCAAA, the figure is -0.0919.

Regarding CAGTACCG, the “PBM E-score” value amounted to 0.229.

Turning to GCAACGGA, the “PBM E-score” value came to 0.355. Next, GAAAAATC: 0.0852; GACGTTTA: -0.287. Next, CTGTCTAC: -0.201; ACTGGCCG: 0.212. As for AGGATGTA, the figure is -0.0846; as for ATAGAAGC, -0.0271; as for CGTAGAAC, -0.106.

AACTCACC: the “PBM E-score” value was 0.0211. Next, ACAATCTC: -0.00292; CAGGGGGC: -0.187.

Turning to AGCGGTAG, the “PBM E-score” value was -0.18. Take GCCCGCGA: the “PBM E-score” value amounted to 0.0967. Consider GTCCTGGA, for which the “PBM E-score” value was -0.21. As to AAAATCGG, the “PBM E-score” value turned out to be 0.198. In the case of ACCTGTAT, the “PBM E-score” value is -0.26.

For CCGCGTTC, the “PBM E-score” value was 0.198.

As for GACGATGA, the “PBM E-score” value is -0.0746.

With CGCGATGC, the “PBM E-score” value was -0.0508. As for CTTCTCCA, the figure is -0.301; as for CATATCGG, 0.404; as for ACAGGTGA, -0.256. As for AGGGTCCG, the figure is 0.281; as for AGTTCCCA, -0.0439; as for CAGGACGC, -0.246. On to TGTGTCAA, for which the “PBM E-score” value is -0.185. Take CAAATATA: the “PBM E-score” value is -0.126.

CCCACACA: the “PBM E-score” value is -0.235.

Turning to ACGACCTG, the “PBM E-score” value was -0.39. AAGTGAGC: the “PBM E-score” value was -0.195. Consider TAAGCCGA, for which the “PBM E-score” value came to 0.382. As for GGGGATGA, the “PBM E-score” value stood at 0.0741. As to GTAAGCTA, the “PBM E-score” value was -0.0304.

ATAAACCC: the “PBM E-score” value is 0.324.

As for CAAACAAC, the “PBM E-score” value worked out at 0.0116. Next, ACTTCTGA: -0.288; ACTACCTC: -0.0151; CCTGATGA: -0.0267. Next, AAGAATCG: 0.228; GACAACGC: -0.0853. As to ACTTCGTA, the “PBM E-score” value is -0.105.

Consider AGCGTCAG, for which the “PBM E-score” value is -0.228. As for ACTTACCC, the figure is 0.0578.

On to ACCTCGCG, for which the “PBM E-score” value amounted to 0.0854.
